Some of these results come from one statement about several compounds together.
target: T1, Bet BRD4 bromodomain (Homo sapiens, UniProt O60885); test: Bet bromodomain TR-FRET assay; format: binding; conditions: displacement of 300 nM acetyl histone peptide substrate from Bet BRD4 bromodomain protein
T1 construct: fused on or other part: An unnamed tag, implied by the XL-665 labelled antibody used for detection

Which IC50 does the source give for COc1cc2c(cc1-c1c(C)noc1C)cc(C(=O)N(C)c1cc(C)c(O)c(C)c1)c(=O)n2Cc1ccccn1 [Compound 98, 6-(3,5-Dimethylisoxazol-4-yl)-N-(4-hydroxy-3,5-dimethylphenyl)-7-methoxy-N-methyl-2-oxo-1-(pyridin-2-ylmethyl)-1,2-dihydroquinoline-3-carboxamide] here?
Its IC50 is 1000 to 10000 nM.

For COc1cc2c(cc1-c1c(C)noc1C)cc(C(Nc1ccc(O)cc1)C(F)(F)F)c(=O)n2Cc1ccccn1 (stereo not drawn) [Compound 72, 7-Methoxy-6-(3-methylisoxazol-4-yl)-1-(pyridin-2-ylmethyl)-3-(2,2,2-trifluoro-1-((4-hydroxyphenyl)amino)ethyl)quinolin-2(1H)-one], which IC50 is on record?
The IC50 was < 600 nM.

COc1cc2c(cc1-c1c(C)noc1C)cc(CC(=O)O)c(=O)n2CCc1ccc(Cl)cc1 [Compound 78, 2-(1-(4-Chlorophenethyl)-6-(3,5-dimethylisoxazol-4-yl)-7-methoxy-2-oxo-1,2-dihydroquinolin-3-yl)acetic acid] was tested. Which IC50 did it give?
Its IC50 is < 600 nM.

How did the IC50 turn out when COc1cc2c(cc1-c1c(C)noc1C)cc(C(=O)N1CCC1)c(=O)n2CCc1ccccc1 [Compound 96, 3-(Azetidine-1-carbonyl)-6-(3,5-dimethylisoxazol-4-yl)-7-methoxy-1-phen-ethylquinolin-2(1H)-one] was run?
The IC50 was < 600 nM.

With COc1cc2c(cc1-c1c(C)noc1C)cc(N1CCc3ccccc3C1)c(=O)n2Cc1ccccn1 [Compound 21, 3-(3,4-Dihydroisoquinolin-2(1H)-yl)-6-(3,5-dimethylisoxazol-4-yl)-7-methoxy-1-(pyridin-2-ylmethyl)quinolin-2(1H)-one] as the molecule, how does the IC50 read?
Its IC50 is < 600 nM.

COc1cc2c(cc1-c1c(C)noc1C)cc(-c1cccc(NC(C)=O)c1)c(=O)n2Cc1ccccn1 [Compound 4, N-(3-(6-(3,5-dimethylisoxazol-4-yl)-7-methoxy-2-oxo-1-(pyridin-2-yl-methyl)-1,2-dihydroquinolin-3-yl)phenyl)acetamide] was tested. Which IC50 did it give?
Its IC50 is < 600 nM.

Source: US20180312496A1, “BICYCLIC HETEROCYCLE DERIVATIVES AS BROMODOMAIN INHIBITORS” (ORION CORPORATION, priority 2015, published 2018)
